Laboratory results reported in the supplement of paper PMC12297408.
Structures can show the parent of a compound that is named as a salt. In all, about 1,300 compounds went through this assay and about 40 (3%) showed activity. Some of the results follow.

Test system: Plasmodium falciparum NF54/iGP1_RE9H ulg8 stage V gametocytes
Test: gametocyte viability (luciferase signal relative to DMSO control) (% of DMSO control); higher = less gametocytocidal activity, active = 50 or less
Conditions: exposure time: 72 h
Method in brief: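 NF54/iGP1_RE9Hulg8 stage V gametocytes (day 12; ~2.5% gametocytemia, 3% hematocrit) in medium with 0.5% Albumax II were added to 96-well plates of nanolitre-spotted compounds (10 mM DMSO stocks), giving 10 µM or 1 µM, one well each. Plates were incubated 72 h at 37 °C. Then 90 µl was mixed with 10 µl D-luciferin (30 mg/ml) and luminescence was read on an IVIS Lumina II. Viability is relative to the mean of plate DMSO vehicle controls.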

Row | Compound | gametocyte viability (concentration: 1 µM) | gametocyte viability (concentration: 10 µM)
1 | CC(=O)Oc1ccccc1C(=O)Nc1ncc([N+](=O)[O-])s1 [Nitazoxanide] | inactive: 83.6 | inactive: 60.5
2 | CC(N/C(=N\C#N)Nc1ccncc1)C(C)(C)C (centres undefined) [Pinacidil] | inactive: 93.7 | inactive: 68.9
3 | CCCCC(O)c1ccccc1 (centres undefined) [Fenipentol] | inactive: 82 | inactive: 82.9
4 | CCN(CC)CCOC(=O)C1(C2CCCCC2)CCCCC1 [Dicyclomine hydrochloride] | inactive: 84.2 | inactive: 80
5 | O=C1c2c(O)cccc2Cc2cccc(O)c21 [Anthralin] | inactive: 89.3 | inactive: 86.9
6 | COc1cc(C(=O)OCCCN2CCCN(CCCOC(=O)c3cc(OC)c(OC)c(OC)c3)CC2)cc(OC)c1OC [Dilazep dihydrochloride] | inactive: 85.4 | inactive: 94.7
7 | Cc1cn[nH]c1 [Fomepizole] | inactive: 81.6 | inactive: 85.7
8 | OC(Cn1cncn1)(Cn1cncn1)c1ccc(F)cc1F [Fluconazole] | inactive: 83.4 | inactive: 86.9
9 | CCCOc1cc(N)ccc1C(=O)OCCN(CC)CC [Propoxycaine hydrochloride] | inactive: 95.8 | inactive: 89.7
10 | NCCc1c[nH]cn1 [Histamine dihydrochloride] | inactive: 90.3 | inactive: 91.8
11 | CC[N+](C)(C)c1cccc(O)c1 [Edrophonium chloride] | inactive: 92.2 | inactive: 97.2
12 | C=CC(N)CCC(=O)O (centres undefined) [Vigabatrin] | inactive: 84.9 | inactive: 90.6
13 | NS(=O)(=O)c1cc(C2(O)NC(=O)c3ccccc32)ccc1Cl (centres undefined) [Chlorthalidone] | inactive: 86.4 | inactive: 84.7
14 | CCN[C@H]1CN(CCCOC)S(=O)(=O)c2sc(S(N)(=O)=O)cc21 [Brinzolamide] | inactive: 85.8 | inactive: 89.1
15 | CC(=O)OCC(=O)[C@@]1(O)CC[C@H]2[C@@H]3CCC4=CC(=O)CC[C@]4(C)[C@H]3[C@@H](O)C[C@@]21C [Cortisol acetate] | inactive: 81.7 | inactive: 80.4
16 | Cc1ncc(C[n+]2csc(CCO)c2C)c(N)n1 [Thiamine hydrochloride] | inactive: 94 | inactive: 89.4
17 | CC(C)c1c(C(=O)Nc2ccccc2)c(-c2ccccc2)c(-c2ccc(F)cc2)n1CC[C@@H](O)C[C@@H](O)CC(=O)O [Atorvastatin] | inactive: 84.1 | inactive: 64.5
18 | CCCCN(CCCC)CCCOC(=O)c1ccc(N)cc1 [Butacaine] | inactive: 81.8 | inactive: 91.1
19 | Cc1ccc(C(=O)c2ccc(CC(=O)O)n2C)cc1 [Tolmetin sodium salt dihydrate] | inactive: 87.3 | inactive: 81.2

Row | Compound | gametocyte viability (concentration: 1 µM) | gametocyte viability (concentration: 10 µM)
20 | COC(=O)Nc1nc2cc(C(=O)c3cccs3)ccc2[nH]1 [Nocodazole] | inactive: 89.3 | inactive: 91.1
21 | CC[N+](C)(CC)CCOC(=O)C1c2ccccc2Oc2ccccc21 [Methantheline bromide] | inactive: 83.4 | inactive: 83.2
22 | CC(=O)OCC(=O)[C@@]1(O)CC[C@H]2[C@@H]3CCC4=CC(=O)CC[C@]4(C)[C@@]3(F)[C@@H](O)C[C@@]21C [Fludrocortisone acetate] | inactive: 79.5 | inactive: 75.8
23 | NNCCc1ccccc1 [Phenelzine sulfate] | inactive: 94.3 | inactive: 93.4
24 | CCCc1cc(C(N)=S)ccn1 [Prothionamide] | inactive: 93.7 | inactive: 95.2
25 | CC(=O)S[C@@H]1CC2=CC(=O)CC[C@]2(C)[C@H]2CC[C@@]3(C)[C@@H](CC[C@@]34CCC(=O)O4)[C@H]12 [Spironolactone] | inactive: 87.2 | inactive: 78.8
26 | CC(Cc1cccc(C(F)(F)F)c1)NCCOC(=O)c1ccccc1 (centres undefined) [Benfluorex hydrochloride] | inactive: 80.9 | inactive: 68.9
27 | CN1CCC(=C2c3ccccc3C=Cc3ccccc32)CC1 [Cyproheptadine hydrochloride] | inactive: 94.8 | inactive: 92.4
28 | N=C(N)NC(=N)NCCc1ccccc1 [Phenformin hydrochloride] | inactive: 83.8 | inactive: 83.6
29 | CC(C)(C)NC[C@@H](O)COc1cccc2c1CCCC2=O [(+) -Levobunolol hydrochloride] | inactive: 84.8 | inactive: 88.1
30 | CO[C@H]1/C=C/O[C@@]2(C)Oc3c(C)c(O)c4c(O)c(c(/C=N/N5CCN(C6CCCC6)CC5)c(O)c4c3C2=O)NC(=O)/C(C)=C\C=C\[C@H](C)[C@H](O)[C@@H](C)[C@@H](O)[C@@H](C)[C@H](OC(C)=O)[C@@H]1C [Rifapentine] | inactive: 84.3 | inactive: 78.7
31 | CN(C)[C@@H]1C(=O)C(C(=O)NCNCCCC[C@H](N)C(=O)O)=C(O)[C@@]2(O)C(=O)C3=C(O)c4c(O)cccc4[C@@](C)(O)[C@H]3C[C@@H]12 [Lymecycline] | inactive: 88.7 | inactive: 84.6
32 | C=C(CC)C(=O)c1ccc(OCC(=O)O)c(Cl)c1Cl [Ethacrynic acid] | inactive: 90.4 | inactive: 92.5
33 | Nc1ccc(S(=O)(=O)NC(=O)c2ccccc2)cc1 [Sulfabenzamide] | inactive: 78.6 | inactive: 83.9
34 | CS(=O)(=O)c1ccc([C@@H](O)[C@@H](CF)NC(=O)C(Cl)Cl)cc1 [Florfenicol] | inactive: 90.7 | inactive: 95.9
35 | CCN(CC)CCCC(C)Nc1ccnc2cc(Cl)ccc12 (centres undefined) [Chloroquine diphosphate] | inactive: 82.8 | inactive: 86.8
36 | CC(C)(C)C(=O)OCOC(=O)[C@@H]1N2C(=O)[C@@H](/N=C/N3CCCCCC3)[C@H]2SC1(C)C [Pivmecillinam hydrochloride] | inactive: 83.3 | inactive: 83.2
37 | CNc1ncnc2c1ncn2[C@@H]1O[C@H](CO)[C@@H](O)[C@H]1O [N6-methyladenosine] | inactive: 79.6 | inactive: 91.4
